About 25,000 (6.9%) of roughly 360,000 compounds were called active. The inconclusive results got no clear call from the source; some entries with a clear call stand among them for comparison. Calls come from the whole dose curve; as a rule, active = well fitted inhibition curve with a large enough effect; inconclusive = small, poorly fitted or top-dose-only effect; inactive = flat fitted curve, though single readings scatter. A potency beside an inconclusive call is a rough fit, not a confirmed value.
The molecules below were run against Luciferin 4-monooxygenase (Photinus pyralis) (UniProt P08659) (assay: qHTS profiling assay for firefly luciferase inhibitor/activator using purifed enzyme and Km concentrations of substrates (counterscreen for miR-21 project)). Conditions: purified FLuc, luminescence inhibition; series mostly up to 57.5 µM.
Chain of UniProt P08659 (P08659 whole entry, looked up): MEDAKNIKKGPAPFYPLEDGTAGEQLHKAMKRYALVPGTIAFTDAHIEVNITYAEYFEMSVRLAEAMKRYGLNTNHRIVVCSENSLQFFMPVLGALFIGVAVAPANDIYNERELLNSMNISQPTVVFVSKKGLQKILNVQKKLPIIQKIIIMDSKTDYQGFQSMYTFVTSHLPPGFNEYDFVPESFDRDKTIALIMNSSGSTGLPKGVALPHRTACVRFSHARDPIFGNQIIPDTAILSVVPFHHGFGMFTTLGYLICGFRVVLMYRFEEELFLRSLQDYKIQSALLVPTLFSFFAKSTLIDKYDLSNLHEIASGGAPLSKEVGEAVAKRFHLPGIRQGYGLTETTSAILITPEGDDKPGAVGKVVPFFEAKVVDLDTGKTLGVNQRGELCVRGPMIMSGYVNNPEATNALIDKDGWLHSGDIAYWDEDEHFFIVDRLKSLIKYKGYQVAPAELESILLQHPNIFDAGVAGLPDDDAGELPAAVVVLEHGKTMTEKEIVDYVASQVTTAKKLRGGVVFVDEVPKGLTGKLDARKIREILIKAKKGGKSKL
Procedure, shortened: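 Purified P. pyralis luciferase (10nM final) with 10uM D-luciferin and 10uM ATP (Km levels) in 50mM Tris acetate pH 7.5, 10mM Mg acetate, 0.01% Tween-20, 0.05% BSA; qHTS 6-point titration, ~60 µM downward; luminescence read.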
Note: nearly all actives have a fitted effect of over 55% in size.
Potency is the fitted concentration of half-maximal effect; tags give direction and shape of the fitted curve.

SMILES | Potency
COc1ccc(-c2ccc(SCc3cccnc3)nn2)cc1OC | inconclusive: 23.9 µM [inhibitor, single point]
NC(N)=N/N=C/c1ccc(OCc2ccccc2)cc1 | inconclusive: 23.9 µM [inhibitor, partial curve]
C=CCSc1nc(C)c(CCCC)c(=O)[nH]1 | inconclusive: 21.3 µM [inhibitor, partial curve, poor fit]
CN(C)c1ccc(-c2noc(-c3ccccc3O)n2)cc1 | active: 0.269 µM
O=C(Cc1cccs1)NCc1cccc(Br)c1 | inconclusive: 16.9 µM [inhibitor, partial curve]
CC(=O)Oc1ccc(C(=O)Nc2cc(C)on2)cc1 | active: 15.1 µM
CCNC(=S)N1CCC(Cc2ccccc2)CC1 | inconclusive: 21.3 µM [inhibitor, single point]
COc1cccc(N(C(=O)Cc2cccs2)C(C(=O)NC2CCCC2)c2ccncc2)c1 (configuration not stated) | inconclusive: 16.9 µM [inhibitor, partial curve]
COc1ccc(CC(=O)Nc2ccc(C(=O)Nc3ccccc3C(=O)O)cc2)cc1OC | inconclusive: 37.9 µM [inhibitor, single point]
Cc1ccc2c(c1)C(=O)CC(c1ccc3c(c1)OCCO3)O2 (configuration not stated) | inconclusive: 30.1 µM [inhibitor, single point]
CCc1c(-c2ccccc2)nc2nc(C)c(C)nn12 | inconclusive: 23.9 µM [inhibitor, partial curve]
COc1ccccc1C(=O)N(Cc1ccco1)Cc1ccccc1F | inactive
COc1ccc(Cl)cc1NC(=O)CN1C(=O)CSc2ccc(S(=O)(=O)N3CCCC3)cc21 | inactive
O=C(O)/C=C/c1ccc(S(=O)(=O)Nc2ccc(C(=O)NCC(=O)O)cc2)cc1 | inactive
CSc1ccc(/C=C/c2nc3ccccc3n2S(=O)(=O)c2ccc(F)c(C)c2)cc1 | active: 0.269 µM
COc1ccccc1-c1cc(C(=O)NCc2ccc(Cl)cc2)no1 | inconclusive: 23.9 µM [inhibitor, partial curve, poor fit]
Fc1ccc(/C=N/Nc2cc(N3CCOCC3)ncn2)cc1 | inconclusive: 3.01 µM [inhibitor, partial curve, poor fit]
COc1ccccc1NC(=S)N1CCC(C(=O)c2ccc(F)cc2)CC1 | inactive
COc1ccc(Nc2nnc(-c3ccncc3)s2)cc1Cl | inconclusive: 26.9 µM [inhibitor, partial curve, poor fit]
O=C1ON=C(c2ccc([N+](=O)[O-])cc2)/C1=C/c1ccccc1O | inconclusive: 21.3 µM [inhibitor, single point]
Cc1ccc(-n2c(=O)[nH]c3sc4c(c3c2=O)CCCC4)cc1 | inconclusive: 10.7 µM [inhibitor, partial curve]
CC(=O)Nc1ccc(NC(=O)c2nc(-c3ccccc3)oc2C)cc1 | inconclusive: 37.9 µM [inhibitor, partial curve, poor fit]
CCn1c(SCc2nc(-c3ccc(Cl)cc3)no2)nnc1-c1ccco1 | inconclusive: 23.9 µM [inhibitor, partial curve, poor fit]

SMILES | Potency
COc1ccc(OCC(=O)NNc2nc3ccccc3s2)cc1 | inconclusive: 21.3 µM [inhibitor, single point]
CS(=O)(=O)N1CCN(c2ccccc2NC(=O)c2ccc([N+](=O)[O-])o2)CC1 | inactive
COc1ccc(CN2C(=NC(=O)C3CCCO3)SC3CS(=O)(=O)CC32)cc1 (configuration not stated) | inactive
Cc1ccc(C(=O)NC(=S)Nc2cccc(-c3nc4ccccc4s3)c2)cc1 | active: 12 µM
COc1ccc(C(=O)Oc2ccc(C3NC(=O)c4c(sc5c4CCN(C)C5)N3)cc2OC)cc1 (configuration not stated) | inconclusive: 30.1 µM [inhibitor, partial curve, poor fit]
CC(=O)N1CCN(S(=O)(=O)c2cccc(C(=O)Nc3nccs3)c2)CC1 | inactive
COc1ccc(-c2nnc(SCc3ccccc3)n2N)cc1 | inconclusive: 21.3 µM [inhibitor, single point]
COc1ccccc1OCCNC(=O)c1ccc2c(c1)OCCO2 | inconclusive: 2.69 µM [inhibitor, partial curve]
COc1cc(/C=N/NC(=O)C2=NNC(=O)C2C)ccc1O (configuration not stated) | inconclusive: 16.9 µM [inhibitor, partial curve, poor fit]
CCOc1ccc(-c2[nH]ncc2Oc2ccccc2OC)c(O)c1 | inconclusive: 26.9 µM [inhibitor, single point]
COc1cc(C2Nc3ccc4ccccc4c3C3=C2C(=O)CC(C)(C)C3)ccc1OC(C)C(=O)O (configuration not stated) | inconclusive: 30.1 µM [inhibitor, partial curve, poor fit]
CCCCCC1CC1C(=O)N/N=C/c1ccc(N(C)C)cc1 (configuration not stated) | inconclusive: 26.9 µM [inhibitor, single point]
COc1ccc(NC(=O)c2ccc3oc(=O)c(S(=O)(=O)c4ccc(F)cc4)cc3c2)c(OC)c1 | inconclusive: 37.9 µM [inhibitor, single point]
COc1ccccc1-n1cnc2cc(NC(=O)c3ccco3)ccc21 | inconclusive: 23.9 µM [inhibitor, partial curve]
O=C(Nc1ccc(C(F)(F)F)cn1)Nc1cccs1 | inconclusive: 7.57 µM [inhibitor, full curve]
CCOC(=O)NC(=O)COC(=O)CCCSc1nc2ccccc2s1 | inconclusive: 26.9 µM [inhibitor, partial curve, poor fit]
CCOc1ccc(C2NC(=O)c3ccccc3O2)cc1 (configuration not stated) | inconclusive: 23.9 µM [inhibitor, single point]
CCN1CCN(c2ncnc3c2cnn3-c2ccc(F)cc2)CC1 | inconclusive: 37.9 µM [inhibitor, partial curve, poor fit]
COCc1cc(C)nc(SCC(=O)Nc2ccc(C)c(C)c2)c1C#N | inconclusive: 26.9 µM [inhibitor, partial curve, poor fit]
Oc1ccc2c(ccc3[nH]cnc32)c1 | inconclusive: 37.9 µM [inhibitor, partial curve, poor fit]
Cc1cccc(NC(=S)NC(=O)c2ccc(Br)o2)c1C | inconclusive: 23.9 µM [inhibitor, partial curve, poor fit]
COc1cc(/C=C2/C(=O)ON=C2c2ccccc2)ccc1O | active: 19 µM
Cc1ccc(OCCC(=O)Nc2ccc(S(=O)(=O)Nc3cc(C)nc(C)n3)cc2)cc1 | inconclusive: 23.9 µM [inhibitor, partial curve, poor fit]

SMILES | Potency
Cc1cc(-c2c(C)[nH]n(-c3ccc(Cl)cc3)c2=O)n(-c2ccc(Cl)cc2)n1 | inconclusive: 37.9 µM [inhibitor, single point]
CCN(CC(=O)Nc1ccc(NC(C)=O)cc1)C(=O)COc1ccc(C(=O)c2ccccc2)cc1 | inconclusive: 26.9 µM [inhibitor, partial curve, poor fit]
Cc1ccc(C(=O)Nc2ccccc2OC(F)F)cc1 | inconclusive: 23.9 µM [inhibitor, single point]
Cc1cccc(N=c2oc3cc(O)ccc3cc2C(N)=O)c1 | inconclusive: 21.3 µM [inhibitor, single point]
COc1ccc(N(C)C(=O)c2cc3c(s2)-c2ccc(Cl)cc2S(=O)(=O)C3)c(OC)c1 | inactive
CCn1cc([N+](=O)[O-])c(=O)c2cc(F)c(N3CCOCC3)cc21 | inactive
O=[N+]([O-])c1ccc(-c2c[nH]c(=S)[nH]2)cc1 | inconclusive: 37.9 µM [inhibitor, single point]
CC(C)(C)NC(=O)C(c1ccncc1)N(C(=O)Cn1nnc(-c2ccc(F)cc2)n1)c1ccccc1 (configuration not stated) | inconclusive: 30.1 µM [inhibitor, partial curve, poor fit]
C/C(=N\Nc1ccc(Cl)cc1)c1ccncc1 | inconclusive: 26.9 µM [inhibitor, single point]
COc1ccc(OCc2cc(C(=O)N3CCN(CC4CC4)CC3)no2)c(Cl)c1 | inconclusive: 21.3 µM [inhibitor, partial curve]
CCS(=O)(=O)N1Cc2ccccc2CC1C(=O)N(C)CC(=O)Nc1cccc(F)c1 (configuration not stated) | inconclusive: 26.9 µM [inhibitor, partial curve, poor fit]
COc1ccc(Cl)cc1C(=O)Nn1c(-c2cccs2)nc2ccccc2c1=O | inactive
Cc1ccc(Cn2c(=O)cc(C(=O)O)c3ccccc32)cc1 | inconclusive: 37.9 µM [inhibitor, partial curve, poor fit]
Cc1cc(C)cc(OCc2ccc(C(=O)O)o2)c1 | inactive
COC(=O)c1ccccc1NC(=O)CCc1c(C)nc2cc(-c3ccc(Cl)cc3)nn2c1C | inconclusive: 16.9 µM [inhibitor, partial curve]
CC(C)(C)c1cc(NCCCn2ccnc2)n2ncc(-c3ccc(Cl)cc3)c2n1 | active: 26.9 µM
COC(=O)c1cc(C#N)c(OC(C)C)nc1C | inactive
CO/C(N)=C(\C#N)N=Cc1ccccc1Cl | inconclusive: 26.9 µM [inhibitor, single point]
O=C(NC(=S)Nc1ccc(O)cc1)c1ccccc1Cl | inconclusive: 37.9 µM [inhibitor, partial curve, poor fit]
COc1cccc(-c2cc(C(=O)Nc3cc(C)on3)no2)c1 | inconclusive: 6.75 µM [inhibitor, partial curve, poor fit]
O=C1CCCN1c1ccc(C(=O)N(Cc2nnc(-c3ccc(Cl)cc3)o2)C2CC2)cc1 | inconclusive: 37.9 µM [inhibitor, partial curve, poor fit]
